The text below walks through data of publication PMC10668032.

The list shows a part of the results. At the low end of the ranking the order means little.

This assay addresses SIX1-Q177R homeodomain (UniProt Q15475). Put plainly: universal protein binding microarray. To be noted: Universal all-10-mer PBM (8x60K, AMADID 030236), 300 nM GST-tagged protein, Alexa Fluor 488 anti-GST; buffer, salt, pH and temperature not stated; high values mean tight binding; most listed sequences are background and not binding sites; double strand, one strand shown.
For AGCATTCC, the binding signal is -0.381 E-score.
As for AAGAGACG, the figure is -0.0234 E-score.
Regarding AGGTTTAC, the binding signal was 0.0661 E-score.
Then AGAAGCGC, with -0.0149 E-score; and AGGAAGGG, with -0.193 E-score.
Then ACGAGGGC, with -0.0253 E-score; and AAAGTCGA, with -0.0293 E-score; and TCGCTGAA, with -0.224 E-score.
Then CATCACAG, with -0.151 E-score.
As for AATCTTCG, the binding signal is -0.322 E-score.
As for AGTGGGGA, the figure is 0.104 E-score; as for CCGGTAGA, 0.038 E-score; as for CGGGTGAG, 0.0241 E-score.
As for CATGGCCC, the figure is -0.229 E-score; as for CATTTCAG, 0.0585 E-score.
Then AAGTGGAG, with -0.0331 E-score.
Consider ACGTCAGT, for which the binding signal is -0.142 E-score.
As for GTCCACTA, the figure is 0.15 E-score; as for CGTTATGC, -0.0728 E-score.
As for CTTTTTGC, the figure is -0.169 E-score; as for AGTAGATG, -0.0828 E-score; as for CACGAAGC, 0.0701 E-score.
Then AATATACT, with -0.183 E-score.
As to CTTGGGTA, the binding signal is 0.0134 E-score.
Then ACCAACGA, with 0.187 E-score; and ACACGAAA, with 0.302 E-score; and CGGGATGA, with -0.171 E-score.
Then CGAGACCC, with 0.0864 E-score; and CGGCAGAC, with -0.105 E-score.
Take GGCTAGCA: the binding signal is -0.205 E-score.
On to ATGCTAAC, for which the binding signal amounted to 0.144 E-score.
Regarding ACGTAAGA, the binding signal was -0.0933 E-score.
Then ACGCTGCT, with 0.104 E-score; and AAGGCTGT, with -0.0818 E-score; and GGCAAGCA, with -0.294 E-score.
Then AGACTCGA, with -0.206 E-score; and CGTGATTA, with 0.0287 E-score.
Then TGGCTACA, with 0.0519 E-score; and CGAGGGCG, with -0.0918 E-score; and AGCCAGTG, with -0.0125 E-score.
With ACTAATCT, the binding signal worked out at 0.043 E-score.
As for AGCGTATG, the figure is -0.0904 E-score.
Then ATCGCGTC, with 0.14 E-score.
Turning to ATCTCGGG, the binding signal is 0.0995 E-score.
As for AAGCTTGC, the figure is -0.182 E-score.
As for ACAGCTTG, the figure is -0.062 E-score; as for GGTTCTAA, -0.0349 E-score; as for CCAGCAAG, -0.0803 E-score.
Then ATTGCGGG, with 0.0525 E-score.
On to AACAAGGA, for which the binding signal was found to be 0.0668 E-score.
Then CGGGTGCC, with 0.145 E-score.
Then GGCCCTAA, with -0.193 E-score.
As for AGAAGGGA, the figure is 0.0316 E-score.
With ATCACGTG, the binding signal turned out to be 0.0529 E-score.
As for CTTTAGCA, the figure is -0.145 E-score; as for GCGCCTCA, -0.396 E-score; as for AGTTTTAA, -0.0842 E-score.
As for CTCTTACA, the figure is 0.183 E-score; as for GTCTCTCA, 0.00979 E-score; as for GCGGTCCC, -0.123 E-score.
As for AGCGCCCC, the figure is -0.175 E-score.
Regarding CGACAGGA, the binding signal was -0.17 E-score.
Take ACCTCCGT: the binding signal was -0.025 E-score.
As for TTCTTCAA, the figure is -0.166 E-score.
Then ACGAGAGC, with -0.243 E-score; and GGAAGAAA, with -0.0911 E-score; and ACTTAAAC, with 0.0526 E-score.
For GCATCTGA, the binding signal is -0.157 E-score.
For AGCCCTAC, the binding signal is -0.0459 E-score.
As to CGCGTTAC, the binding signal turned out to be 0.0473 E-score.
As for TAAAGGTA, the figure is -0.0186 E-score.
In the case of CCCGCTAG, the binding signal was -0.105 E-score.
Turning to CTATGAGA, the binding signal was -0.156 E-score.
As for CGGCCAAA, the figure is -0.281 E-score; as for AACAGATT, -0.2 E-score; as for AACTTCCT, -0.293 E-score.
In the case of GTGCTCTA, the binding signal was found to be 0.221 E-score.
Then GACGACCC, with 0.158 E-score; and CCTCAATA, with -0.0948 E-score.
In the case of ACAATCCA, the binding signal was -0.0298 E-score.
Regarding CCTTCATA, the binding signal is -0.00971 E-score.
As for GTAATGCA, the figure is -0.0872 E-score; as for AGTAGCCC, -0.0534 E-score; as for TACCACCA, 0.0563 E-score.
Then ACATGAAA, with -0.15 E-score; and GATAACTA, with 0.113 E-score.
As for CAAGACTA, the figure is -0.202 E-score; as for CTGTATTA, -0.258 E-score.
For the sequence AACTACGG, the binding signal was -0.00575 E-score.
As for AGATCAAA, the figure is -0.184 E-score.
As for ACCATTAC, the binding signal was 0.162 E-score.
As for CTTGACCC, the figure is 0.201 E-score; as for AACGCTCC, -0.165 E-score.
Then ACCACAAA, with -0.106 E-score; and CATGTTAC, with -0.0595 E-score.
As for GGTGACCA, the figure is -0.0869 E-score.
As to CTAGGTCC, the binding signal is -0.0538 E-score.
Take TGATGAAA: the binding signal is -0.151 E-score.
In the case of AATCTCTC, the binding signal is -0.274 E-score.
As for ACAGTATC, the figure is 0.0486 E-score; as for ATTTAAGG, -0.202 E-score; as for TCCAAAAA, -0.208 E-score.
CCCGCGCG: the binding signal was 0.0351 E-score.
Then TAAGTAGA, with -0.124 E-score; and AGATAACG, with -0.0978 E-score.
As for CTTGAACC, the figure is 0.00499 E-score; as for CGCAACGA, -0.0869 E-score; as for ACTTGGTC, 0.0884 E-score.
Then CCCAAGCC, with 0.0691 E-score; and AATCAAGG, with -0.175 E-score.
As for ACGCAAAT, the binding signal is 0.0919 E-score.
As for CCTATGCA, the figure is -0.0848 E-score; as for ACACCACC, 0.481 E-score.
Then CTCGACCA, with -0.0276 E-score; and ATGGCCAT, with -0.243 E-score; and GAAAGATC, with -0.244 E-score.
As for AAGGCGAC, the figure is 0.0508 E-score; as for TAACCGTA, 0.00244 E-score; as for GGGAGGTA, 0.0636 E-score.
For the sequence AAGGCCAT, the binding signal was -0.0761 E-score.
Then CTTTTATC, with -0.109 E-score; and ATACTGGG, with 0.0822 E-score; and GCGGTCCA, with -0.205 E-score.
Then CCCCCTCC, with 0.182 E-score; and CATGCGAC, with -0.0521 E-score.
For the sequence AAAAATCC, the binding signal was -0.154 E-score.
As for AAAGCACT, the figure is 0.0751 E-score; as for CTGCGGGA, -0.00809 E-score.
Then AGCACTTC, with 0.00248 E-score; and GGAGGTTA, with 0.0855 E-score.
Then TGAGCACA, with 0.0414 E-score; and AGAGGGCT, with -0.0886 E-score; and AAGAATGT, with -0.34 E-score.
Turning to CATCCTGG, the binding signal was -0.247 E-score.
Then AAGCGGCG, with -0.0674 E-score; and CAAAGGGA, with 0.0185 E-score; and AAGAAAGT, with -0.215 E-score.
With ACAAGATG, the binding signal stood at 0.089 E-score.
As for CCGAGCGG, the figure is 0.0805 E-score; as for ACACGCCA, 0.381 E-score; as for CGCATCGC, -0.284 E-score.
Then CCGGTATA, with 0.183 E-score; and GCTGATGA, with -0.175 E-score.
As for AGGCCCCA, the binding signal was -0.29 E-score.
As for ATGTCGTG, the figure is 0.222 E-score.
Then CTGAAAAA, with -0.156 E-score; and ACGTTGTC, with 0.0111 E-score; and GCAAAACA, with -0.0259 E-score.
Regarding CATGAGGG, the binding signal was 0.123 E-score.
Then CTCAATTA, with -0.0285 E-score; and ATCAGACA, with 0.204 E-score; and GAGGGCCA, with -0.195 E-score.
For the sequence TGAGGTAA, the binding signal was -0.235 E-score.
Consider ATGCAATG, for which the binding signal is -0.0681 E-score.
As for TAACGCGA, the figure is -0.0997 E-score; as for GGAAACCA, -0.0986 E-score.
As for CTTGGAAA, the figure is -0.123 E-score; as for CGATTTAA, -0.0559 E-score; as for ACATGCAA, -0.0427 E-score.
As for CCTTAGCG, the binding signal is -0.0239 E-score.
Consider CCAATCCA, for which the binding signal was determined as 0.0725 E-score.
Then AACAACAC, with 0.414 E-score; and AGAAAAGA, with -0.119 E-score; and CTACCCAG, with 0.0549 E-score.
As for CAGCATCC, the figure is -0.221 E-score.
Then AGGACAGC, with -0.158 E-score; and CTAAGCCC, with -0.114 E-score.
With ATCAGACG, the binding signal is -0.187 E-score.
As for ACGCCCCA, the figure is 0.114 E-score.
Then CGCGGTTA, with 0.0939 E-score.
Then AGAATTAC, with 0.0518 E-score.
For the sequence CCCCGATC, the binding signal came to 0.0878 E-score.
